The text below walks through data of a collection of fitness landscapes (doi:10.1126/science.1257360).

B1: PhoQ; a variant is named by its letters at X, in order, P23837 (parent)
chain: MKKLLRLFFPLSLRVRFLLATAAVVLVLSLAYGMVALIGYSVSFDKTTFRLLRGESNLFYTLAKWENNKLHVELPENIDKQSPTMTLIYDENGQLLWAQRDVPWLMKMIQPDWLKSNGFHEIEADVNDTSLLLSGDHSIQQQLQEVREDDDDAEMTHSVAVNVYPATSRMPKLTIVVVDTIPVELKSSYMVWSWFIYVLSANLLLVIPLLWVAAWWSLRPIEALAKEVRELEEHNRELLNPATTRELTSLVRNLNRLLKSERERYDKYRTTLTDLTHSLKTPLXXLQXXLRSLRSEKMSVSDAEPVMLEQISRISQQIGYYLHRASMRGGTLLSRELHPVAPLLDNLTSALNKVYQRKGVNISLDISPEISFVGEQNDFVEVMGNVLDNACKYCLEFVEISARQTDEHLYIVVEDDGPGIPLSKREVIFDRGQRVDTLRPGQGVGLAVAREITEQYEGKIVAGESMLGGARMEVIFGRQHSAPKDE

The other results are listed elsewhere or left out.

Variants of B1 are the subject of this test. As to the kind of experiment: enrichment ratio after two sorts for PhoP signalling (ratio (wild type AVST 3.29)); higher = more functional. The settings on record: with PhoP (E. coli).
As for KDVM, the enrichment ratio was ≤ 0.25.
To SLHM belongs ≤ 0.25.
To NMLD belongs ≤ 0.25; to IKIS, ≤ 0.25; to GIPD, ≤ 0.25.
For ELDQ, the enrichment ratio was ≤ 0.25.
The value for CSLE was ≤ 0.25; that for DFTG was ≤ 0.25.
To GGMT belongs ≤ 0.25.
To MQPI belongs ≤ 0.25.
With HEIT, the enrichment ratio was ≤ 0.25.
For the variant LTLW, the enrichment ratio is ≤ 0.25.
To PAYN belongs ≤ 0.25.
The value for ERIS was ≤ 0.25; that for LDFQ was ≤ 0.25; that for TSAE was 6.74.
The value for SEEA was ≤ 0.25; that for HTTR was ≤ 0.25; that for PPMC was ≤ 0.25.
Take WDLE: the enrichment ratio was ≤ 0.25.
The value for PEPL was ≤ 0.25; that for HLQI was ≤ 0.25; that for MNWE was 17.9.
To LDDR belongs ≤ 0.25; to QLVD, ≤ 0.25; to APGC, ≤ 0.25.
With YHLK, the enrichment ratio is ≤ 0.25.
The value for GMLR was ≤ 0.25.
On to HTGW, for which the enrichment ratio was ≤ 0.25.
Turning to WVKG, the enrichment ratio is ≤ 0.25.
The value for ISPR was ≤ 0.25.
For the variant YGTT, the enrichment ratio was ≤ 0.25.
To MVFD belongs ≤ 0.25; to PSWN, ≤ 0.25.
To TTVN belongs 7.71; to RWPK, ≤ 0.25.
On to ELNP, for which the enrichment ratio was ≤ 0.25.
To RDVE belongs ≤ 0.25.
Regarding FQGF, the enrichment ratio is ≤ 0.25.
As for LYAI, the enrichment ratio was ≤ 0.25.
To QPGK belongs ≤ 0.25.
To YNPN belongs ≤ 0.25.
To FNIV belongs ≤ 0.25; to GHAF, ≤ 0.25; to FDWE, ≤ 0.25.
As for LSRR, the enrichment ratio was ≤ 0.25.
To LFLL belongs ≤ 0.25.
The value for AMAY was 7.6.
The value for HGPH was ≤ 0.25.
For the variant FGGC, the enrichment ratio is ≤ 0.25.
To HNPH belongs ≤ 0.25; to IAET, ≤ 0.25; to IYRP, ≤ 0.25.
The value for ISKV was ≤ 0.25.
To DQMY belongs ≤ 0.25.
With RGNY, the enrichment ratio was ≤ 0.25.
Take GQYH: the enrichment ratio is ≤ 0.25.
The value for SEWF was 1.29.
The value for TFNQ was 13.4; that for DNNQ was ≤ 0.25; that for VGSG was 2.39.
The value for SNHE was ≤ 0.25; that for ADMR was ≤ 0.25.
Turning to FNQH, the enrichment ratio is ≤ 0.25.
Turning to TFSL, the enrichment ratio is 7.53.
The value for WPFF was ≤ 0.25; that for ELDN was ≤ 0.25.
RWRF: the enrichment ratio is ≤ 0.25.
To YPEI belongs ≤ 0.25.
The value for KGWP was ≤ 0.25.
The value for MDWK was ≤ 0.25; that for VMMF was ≤ 0.25.
As to CTSR, the enrichment ratio was ≤ 0.25.
The value for INLM was 5.25; that for MIHQ was 4.33; that for QFRW was ≤ 0.25.
As to WPYP, the enrichment ratio was ≤ 0.25.
As for YTQM, the enrichment ratio is ≤ 0.25.
The value for EWAQ was ≤ 0.25; that for YRIN was ≤ 0.25.
To MYPD belongs ≤ 0.25; to GQHV, ≤ 0.25; to TMDD, ≤ 0.25.
To PTYA belongs ≤ 0.25.
Turning to WHER, the enrichment ratio was ≤ 0.25.
The value for YFEV was ≤ 0.25.
To WNMY belongs ≤ 0.25; to GDLW, ≤ 0.25.
Regarding WDPK, the enrichment ratio was ≤ 0.25.
For the variant FQCQ, the enrichment ratio is ≤ 0.25.
The value for LKFE was ≤ 0.25; that for ICFI was ≤ 0.25; that for NAFF was ≤ 0.25.
The value for GQKD was ≤ 0.25; that for AFLI was ≤ 0.25; that for SVGS was 0.772.
The value for RCQL was ≤ 0.25.
As to RAGR, the enrichment ratio was ≤ 0.25.
To KDGN belongs ≤ 0.25; to FACM, 6.18.
The value for SNDW was ≤ 0.25; that for DMGT was ≤ 0.25.
The value for SAKV was ≤ 0.25; that for GAIT was ≤ 0.25.
As to VIMC, the enrichment ratio is ≤ 0.25.
To PCWS belongs ≤ 0.25; to TWTW, ≤ 0.25.
As to IMSK, the enrichment ratio is ≤ 0.25.
The value for RKMN was ≤ 0.25; that for PHSI was ≤ 0.25; that for NGAR was ≤ 0.25.
The value for NQQH was ≤ 0.25.
The value for PGSP was ≤ 0.25; that for GLYR was ≤ 0.25; that for RLCI was ≤ 0.25.
With IMRT, the enrichment ratio is ≤ 0.25.
Take CFGF: the enrichment ratio was ≤ 0.25.
As to VVFE, the enrichment ratio is ≤ 0.25.
As to WPLG, the enrichment ratio was ≤ 0.25.
Consider FWHC, for which the enrichment ratio was ≤ 0.25.
For the variant WMPS, the enrichment ratio is ≤ 0.25.
To RITS belongs ≤ 0.25.
To RFPL belongs ≤ 0.25; to SLAR, ≤ 0.25.
As for KRLS, the enrichment ratio is ≤ 0.25.
The value for KVNC was ≤ 0.25.
For ASNW, the enrichment ratio is ≤ 0.25.
The value for SQHS was ≤ 0.25.
To KCKG belongs ≤ 0.25; to DGTG, ≤ 0.25; to RIFC, ≤ 0.25.
To ATSE belongs 2.13; to HVTM, ≤ 0.25.
On to VHHE, for which the enrichment ratio was ≤ 0.25.
The value for DIMG was ≤ 0.25; that for FTLF was 8.01.
To KSNN belongs ≤ 0.25; to VCDE, ≤ 0.25.
As for RCYT, the enrichment ratio is ≤ 0.25.
Regarding TQYY, the enrichment ratio turned out to be 4.95.
DHED: the enrichment ratio is ≤ 0.25.
The value for MRAT was ≤ 0.25.
Take YCPD: the enrichment ratio is ≤ 0.25.
For the variant NGSS, the enrichment ratio is ≤ 0.25.
For the variant HPCI, the enrichment ratio was ≤ 0.25.
To AYGC belongs ≤ 0.25; to DFHS, ≤ 0.25; to GGIL, 3.71.
The value for YWRM was ≤ 0.25; that for MIAW was ≤ 0.25; that for PRCN was ≤ 0.25.
To QWFA belongs ≤ 0.25; to ATGC, ≤ 0.25.
